Data on three molecules can be found in US20150329864A1, “DESIGN OF OLIGONUCLEOTIDE ANALOGS AS THERAPEUTIC AGENTS” (SPRING BANK PHARMACEUTICALS, INC., priority 2010, published 2015).

What all share (assay type): cell-based
Common to all, as to settings: Hepatitis B virus

The subject of assay [1] is HBV-3TC-R2 M204V. How it is done: (§1) Antiviral analysis. For the antiviral analyses, confluent cultures of 2.2.1.5 cells were maintained on 96-well flat-bottomed tissue culture plates in RPMI1640 medium with 2% fetal bovine serum. Cultures (6 per each test concentration on two replicate plates) were treated with 9 consecutive daily doses of the test compounds. Medium was changed daily with fresh test compounds. HBV nucleic acid and protein levels were measured 24 hours after the last treatment. Extracellular (virion) HBV DNA levels were assessed by quantitative blot hybridization. Intracellular HBV DNA levels were measured by quantitative Southern blot hybridization.
(§2) The uptake of neutral red dye was used to determine the relative level of toxicity 24 hours following the last treatment. The absorbance of internalized dye at […] (A510) was used for the semi-quantitative analysis. Values are presented as a percentage of the average A510 values (±standard deviations) in 9 separate cultures of untreated cells maintained on the 96-well plates seeded at the same time with the identical pool of stock cells used for the antiviral analyses and maintained in an identical manner. A total of 3 cultures were treated with each concentration of the test compound.

Assay [2] relates to HBV-3TC-R1 L180M. As to the method: as §1, §2
Assay [3] relates to HBV-ADV-R1 N236T. How it is done:
as §1, §2

Assay [4] relates to HBV-3TC-R3 M204I. How it is done: as §1, §2

Usually EC50 stands for the concentration giving half of the maximal effect. What is called EC90 is the concentration at which the effect reaches the 90% level.

Take `CC(C)(C)C(=O)OCOP(=O)(COCCn1cnc2c(N)ncnc21)OCOC(=O)C(C)(C)C` [ADV, adefovir dipivoxil]: the concentration giving a half-maximal response (EC50) in assay [1] was determined as 1.8 µM; in assay [2] it was 2.1 µM; in assay [3], 7.5 µM; in assay [4], 2 µM. Also, the concentration for an effect of 90% (EC90) in assay [1] worked out at 7.2 µM; in assay [2], 8.2 µM; in assay [3], 29 µM; in assay [4], 8 µM.

Consider `Nc1ccn([C@@H]2CS[C@H](CO)O2)c(=O)n1` [Compound 3TC, Lamivudine], for which the EC50 in assay [1] was over 100 µM; in assay [2] it was 5.3 µM; in assay [3], 0.2 µM; in assay [4] it was over 100 µM. Moreover, the EC90 in assay [1] is over 100 µM; in assay [2], 20 µM; in assay [3] it was 0.8 µM; in assay [4], over 100 µM.

For the molecule `CO[C@H]1C(OP(=O)(OC[C@H]2O[C@@H](n3cnc4c(N)ncnc43)CC2O)SCOC(=O)OC(C)C)[C@@H](CO)O[C@H]1n1ccc(=O)[nH]c1=O` (stereo partly drawn) [Compound 6k], the EC50 in assay [1] came out at 2.4 µM; in assay [2] it was 2.1 µM; in assay [3], 2.8 µM; in assay [4], 3 µM. Besides, the EC90 in assay [1] worked out at 8.3 µM; in assay [2], 8.6 µM; in assay [3], 8.7 µM; in assay [4] it was 9.2 µM.
